Reference: publication PMC4336329 (PLoS ONE, 2015)
The campaign covered roughly 310,000 compounds. About 2,200 (0.71%) showed an effect of 50% or more. Effects have a minus sign here. Some of the results follow.

Target: human ether-à-go-go-related gene (hERG) potassium channel (human, UniProt Q12809)
Assay: primary screen, population patch clamp on CHO cells stably expressing hERG

Sequence of human ether-à-go-go-related gene (hERG) potassium channel (Q12809 whole entry, looked up): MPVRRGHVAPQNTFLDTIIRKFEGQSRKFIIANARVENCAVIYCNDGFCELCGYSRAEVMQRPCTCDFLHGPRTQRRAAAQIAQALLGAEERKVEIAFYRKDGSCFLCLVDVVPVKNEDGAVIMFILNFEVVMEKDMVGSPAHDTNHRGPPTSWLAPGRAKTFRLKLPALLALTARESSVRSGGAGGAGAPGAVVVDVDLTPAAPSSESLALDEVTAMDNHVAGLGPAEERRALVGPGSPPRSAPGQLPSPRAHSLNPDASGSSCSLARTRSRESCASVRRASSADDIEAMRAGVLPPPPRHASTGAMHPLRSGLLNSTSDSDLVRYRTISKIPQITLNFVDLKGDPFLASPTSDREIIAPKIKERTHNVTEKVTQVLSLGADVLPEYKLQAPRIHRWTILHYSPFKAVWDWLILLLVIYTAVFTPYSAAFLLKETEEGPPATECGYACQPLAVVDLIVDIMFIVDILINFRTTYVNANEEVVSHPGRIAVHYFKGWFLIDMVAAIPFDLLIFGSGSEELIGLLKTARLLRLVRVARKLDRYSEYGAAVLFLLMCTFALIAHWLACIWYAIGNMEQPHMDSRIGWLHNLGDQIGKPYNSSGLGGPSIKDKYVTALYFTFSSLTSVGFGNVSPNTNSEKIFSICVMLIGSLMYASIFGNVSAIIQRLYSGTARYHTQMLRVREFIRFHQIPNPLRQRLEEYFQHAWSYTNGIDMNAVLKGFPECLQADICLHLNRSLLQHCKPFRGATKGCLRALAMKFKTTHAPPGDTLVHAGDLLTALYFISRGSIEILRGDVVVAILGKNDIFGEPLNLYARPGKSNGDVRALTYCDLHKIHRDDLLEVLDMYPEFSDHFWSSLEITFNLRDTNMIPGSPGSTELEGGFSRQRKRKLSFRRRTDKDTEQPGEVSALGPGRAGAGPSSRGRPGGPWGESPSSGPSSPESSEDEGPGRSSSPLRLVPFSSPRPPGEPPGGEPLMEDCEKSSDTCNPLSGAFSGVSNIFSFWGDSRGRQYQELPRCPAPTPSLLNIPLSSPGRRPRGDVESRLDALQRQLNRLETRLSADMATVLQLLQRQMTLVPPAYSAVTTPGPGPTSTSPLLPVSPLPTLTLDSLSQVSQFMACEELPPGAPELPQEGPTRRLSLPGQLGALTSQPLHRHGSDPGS

SMILES | hERG current change (%, negative = inhibition) at 1uM [%]
CCCCCC(=O)OC(CN1CCCC1=O)C[NH+]1CCCCCC1.[Cl-] (stereo not drawn) | -2.68
COC(=O)c1ccc(CSc2nnc(NC(=O)C3CC(=O)N(c4ccc5c(c4)OCCO5)C3)s2)cc1 (stereo not drawn) | 10.2
COc1ccc(-c2cc(C(F)(F)F)nc(S(=O)(=O)CCC(=O)N3CCOCC3)n2)cc1 | 10.9
COc1cccc2c1Oc1ncccc1N(C(=O)CCC(=O)NCc1ccccc1Cl)C2 | 8.41
C=CCN1C(=O)NC(=O)/C(=C\c2ccc(-c3ccccc3[N+](=O)[O-])o2)C1=O | 4.02
COc1cc(/C=C2\SC(=S)N(Nc3ccccc3)C2=O)ccc1O | 5.31
Cc1cccc(NC(=O)NCC(c2ccc(F)cc2)N2CCN(C)CC2)c1 (stereo not drawn) | -1.38
O=C(Nc1nc(-c2ccc(S(=O)(=O)N3CCCCCC3)cc2)cs1)c1cccs1 | 12.8
Fc1ccc(-c2csc(N3CCSCC3)n2)cc1 | 15.7
CCCC(C)NC(=S)NC(=O)c1cc(S(=O)(=O)N2CCOCC2)ccc1C (stereo not drawn) | 7.96
Cc1nnc(SC(C)C(=O)Nc2ccc3ccccc3c2)[nH]c1=O (stereo not drawn) | 19.2
O=C(c1ccc2ccccc2c1)C1CCCN(S(=O)(=O)c2cccnc2)C1 (stereo not drawn) | 13.4
Cc1cc(C)c(C)c(S(=O)(=O)N2CCN(CC(=O)Nc3ccc([N+](=O)[O-])cc3)CC2)c1C | 12.5
COc1cc(C(=S)NC2CCCCC2)ccc1O | 8.16
COc1cc(OC)cc(C(=O)NNC(=O)NC2CCCCC2)c1 | 5.01
O=C(COC(=O)CNS(=O)(=O)c1ccc(F)c(F)c1F)NCCc1ccccc1 | 10.9
c1ccc(NC2=NCCN2CCCC2CCCCC2)cc1 | -6.37
CCOC(=O)CNC(=O)CSc1nc2cccnc2n1Cc1ccccc1 | -30.1
CCCNC(=O)CCn1c(=S)oc2ccccc21 | 10.7

SMILES | hERG current change (%, negative = inhibition) at 1uM [%]
CCOc1ccc(-c2cn(-c3ccccc3OC)c(=S)[nH]2)cc1 | 7.02
O=C(NCCc1ccccn1)c1nc(Cn2ccc([N+](=O)[O-])n2)no1 | 5.97
CC1CCCN(C(=O)CCCC(=O)N2CCCC(C)C2)C1 (stereo not drawn) | 2.51
N#CCCN(Cc1cccnc1)C(=S)NC(=O)C1CC1 | -0.462
COc1ccc(C(=O)C2CCCN(Cc3cccc4c3OCO4)C2)cc1OC (stereo not drawn) | -29.3
Cc1ccccc1OCC(=O)N/N=C/c1c(C)nn(-c2ccccc2)c1Cl | 7.93
Cc1ccccc1-n1nnnc1SCC(=O)Nc1ccc(N2CCN(C)CC2)cc1 | -12.3
O=C(O)c1nn(CC(=O)N(C2CCCCC2)C2CCCCC2)c(=O)c2ccccc12 | 10.4
COc1ccc(-c2cc(-c3ccccc3)nc(-c3ccc4c(c3)NC(=O)CO4)c2)cc1 | 4.07
COc1ccc(C2C3=C(CC(C)(C)CC3=O)Nc3cc4c(cc32)OCO4)cc1 (stereo not drawn) | 7.67
COc1ccc(/C=C/CN2CCC(Oc3ccc(C(=O)N4CCCCC4)cc3)CC2)cc1 | -15.6
Cc1cc(NC(=O)CSc2c[nH]c3ccccc23)no1 | -20.1
CCOc1cccc2sc(NC(=O)CCS(=O)(=O)c3ccccc3)nc12 | 14
Cc1nc2scc(C)n2c(=O)c1S(=O)(=O)N1CCN(c2ccccc2F)CC1 | 5.13
C=CCn1c(O)c(C(C)=Nc2ccc(NC(C)=O)cc2)c(=O)[nH]c1=O | 8.23
O=C(NCc1cccnc1)c1ccc(N2CCOCC2)c([N+](=O)[O-])c1 | 4.84
CC(C)NC(=O)c1ccc2c(=O)n(Cc3ccco3)c(=S)[nH]c2c1 | 8.77
COc1ccccc1CNC(=O)C1CCN(S(=O)(=O)c2ccc3c(c2)CC(C)N3C(=O)C2CC2)CC1 (stereo not drawn) | 15.8
COc1ccc(Sc2nc(-c3ccccc3)ncc2C(=O)O)cc1 | 13.3

SMILES | hERG current change (%, negative = inhibition) at 1uM [%]
O=C(Nc1ccc2nsnc2c1)N1CCCCCC1 | 6.75
COc1cc2c(cc1OC)C1=C(C#N)CCC(=O)N1CC2 | 11.4
Cc1ccc(NC(=O)CCl)c(C)c1 | 15.7
O=C(CSc1nnc(-c2ccccc2F)n1C1CC1)NCc1ccco1 | 2.1
O=C(CSC(=S)N1CCCC1)c1cc(Br)cc(Br)c1O | 13.2
CC(OC(=O)CCNS(=O)(=O)c1cccs1)C(=O)Nc1ccc(S(N)(=O)=O)cc1 (stereo not drawn) | 5.31
CCN(CC)C(=O)c1[nH]cnc1C(=O)N[C@@H](C)c1ccccc1 | 13.4
CCN(CC1CCCO1)C(=O)C1CCN(C2CCN(Cc3ccccc3C)CC2)CC1 (stereo not drawn) | -5.16
O=C(Nc1ccccc1)C1CC2CCC1C2 (stereo not drawn) | 13.4
Cl.N=C1c2ccccc2CN1CC(=O)c1ccccc1 | 6.38
CS(=O)(=O)N1CCC(C(=O)NCc2ccncc2)CC1 | 9.36
CCN1CCN(S(=O)(=O)c2c[nH]c(C(=O)OC)c2)CC1 | 8.18
Cc1sc2ncn(CC(=O)N3CCC(C(N)=O)CC3)c(=O)c2c1S(=O)(=O)N1CCOCC1 | 10.1
COc1ccc(/C=C/C(=O)OC(C)CN2CCCCC2)cc1.Cl (stereo not drawn) | 4.34
CC(C)C(=O)Nc1ccc(-c2ccc3nncn3n2)cc1 | 11.6
O=[N+]([O-])c1cccc2c3c([nH]c12)CCCC3 | 17.5
CN(C)C(CNC(=O)CSc1nc2sc3c(c2c(=O)n1C)CCC3)c1ccccc1 (stereo not drawn) | 9.04
Cc1ccc(C)c(NC(=O)CCN2CCCC(C)C2)c1 (stereo not drawn) | 7.54
CC12c3ccccc3C(c3ccccc31)C1C(=O)N(c3ccncc3)C(=O)C12 (stereo not drawn) | 15
